Test results: PMC6212790
The list shows a part of the results. At the low end of the ranking the order means little.

Target: T1, GST-Rok (full length) (UniProt O34857)
T1 sequence: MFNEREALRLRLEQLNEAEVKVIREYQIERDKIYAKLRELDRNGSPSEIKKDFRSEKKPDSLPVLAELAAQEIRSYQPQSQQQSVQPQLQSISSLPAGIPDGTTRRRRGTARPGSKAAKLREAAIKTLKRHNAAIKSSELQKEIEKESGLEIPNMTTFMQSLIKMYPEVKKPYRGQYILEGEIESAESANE
Test: protein binding microarray;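 note: rank score from −0.5 (least bound) to 0.5 (best bound)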
Conditions: Rok is a gene silencer of Bacillus subtilis; high values mean tight binding; most listed sequences are background and not binding sites; double strand, one strand shown

Row | Sequence | binding signal [E-score]
1 | CGCTGGCC | -0.361
2 | AGGTTGCA | -0.143
3 | CGGGTCAG | -0.295
4 | CTACGCCC | -0.384
5 | AAAAATAC | 0.32
6 | GTCGCAGA | -0.125
7 | CCCCAAGA | -0.192
8 | CAGAGGGA | -0.28
9 | AATGCCCG | -0.226
10 | AAGATAAT | 0.286
11 | GCGCCGGA | -0.0297
12 | AATTAGAT | 0.229
13 | GTAACCTA | 0.125
14 | GTCCGTAA | -0.0162
15 | GGAATGCC | -0.253
16 | AGAGTGCA | -0.104
17 | GAGTCTCC | -0.174
18 | AGCATATC | 0.00918
19 | GGGTCGGA | -0.409
20 | GTACTTGA | 0.11
21 | CACCTTGC | -0.217
22 | AAGTTCCG | 0.102
23 | AGGTAAAC | 0.147
24 | CAACTAAG | -0.045
25 | ACTAAAGA | 0.0421

Row | Sequence | binding signal [E-score]
26 | GGAGATGA | -0.199
27 | CGCAGATA | 0.112
28 | AGTAGAGC | -0.0815
29 | ACTTCACA | -0.0126
30 | GCTTAGAA | -0.0146
31 | CATTACAC | 0.116
32 | ACGTTCGA | -0.0497
33 | ACTTTGTG | 0.00735
34 | CTAAAAGC | -0.0522
35 | CTTTTCAC | -0.112
36 | GGTATACA | 0.187
37 | CCAACTTC | 0.0462
38 | ATCCCGGC | -0.185
39 | AGTGATAC | 0.231
40 | ACACAACC | -0.0164
41 | CAGAGCTA | 0.0298
42 | GCACAGCA | -0.123
43 | ACGGTACT | 0.211
44 | CAGTTAGG | -0.0571
45 | AGGTTGTG | -0.054
46 | ATTACCGC | 0.245
47 | ACCTCGAA | 0.178
48 | CTGAACCC | -0.24
49 | CGTCCTTA | 0.0174
50 | GCATGCCC | -0.322

Row | Sequence | binding signal [E-score]
51 | CTGCCAGC | -0.163
52 | GTGTAATA | 0.249
53 | ATACGATC | 0.0843
54 | CAGACTAA | -0.0315
55 | CGATACGC | -0.0456
56 | GGGCGCCC | -0.322
57 | CCTTTGCG | -0.299
58 | CCTTCGAA | -0.0681
59 | CACAGTAA | 0.146
60 | GCTTTTAC | 0.123
61 | CCTCCAGC | -0.262
62 | AAGGTATC | 0.167
63 | AGCTCGAT | -0.0461
64 | ATATTGGG | 0.00137
65 | AGCGCAAC | 0.0919
66 | AAAAGGAT | -0.0221
67 | AACTGCGA | 0.0185
68 | ATATGGTC | 0.129
69 | GCCACGCA | -0.195
70 | ACGCCCAG | -0.35
71 | ATTTCCCA | 0.0391
72 | CGTTTAAC | -0.0381
73 | CCGCTAAA | 0.0838
74 | TCGATCGA | 0.077
75 | AGAACCAG | -0.141

Row | Sequence | binding signal [E-score]
76 | AAACGGAT | -0.0449
77 | ACTCGTCT | 0.0787
78 | AACCTGAC | -0.127
79 | GGCGTTTA | -0.0419
80 | TAAAGACA | -0.0458
81 | AGAGCGGC | -0.236
82 | ATGGTAAC | 0.214
83 | CCAGTAAG | -0.205
84 | GCCGGGTA | -0.231
85 | GGTTGCCA | -0.117
86 | AATCACGT | 0.164
87 | CATCCCGC | -0.123
88 | AGTTGGAC | -0.141
89 | ACGTCTTA | 0.00235
90 | CCTAGTCG | -0.13
91 | CACGGCAG | -0.197
92 | ATACGTCA | 0.242
93 | CATTGCTC | -0.0581
94 | CGGCAGCA | -0.221
95 | GAGTCAAA | 0.0563
96 | GGTAGCTA | 0.341
97 | ATATCCCC | -0.13
98 | ATTGGGAC | -0.13
99 | ACAGACAA | 0.126
100 | CACCTTTC | -0.0214

Row | Sequence | binding signal [E-score]
101 | GGAAATCA | 0.104
102 | ATGGTCGC | -0.0576
103 | AATGCATT | 0.216
104 | CGTAAGTA | 0.192
105 | CCAACCGC | -0.238
106 | CTGATCTA | 0.118
107 | CGTTAGCC | -0.117
108 | ACTTGCAC | 0.141
109 | CGCAGTAA | -0.0838
110 | ACTGCTCG | -0.1
111 | GCCCTAAC | -0.212
112 | CCCTTCAC | -0.274
113 | ATGTTATG | 0.209
114 | ATGGGAAT | 0.146
115 | CCACAGCA | 0.0254
116 | CGATGCTC | -0.206
117 | AAAGTTGA | -0.0334
118 | CGGCGGCA | -0.198
119 | AACTGCGG | -0.104
120 | CGTAGATA | 0.258
121 | AAACGGCC | -0.248
122 | CGAAAACA | 0.252
123 | CATCCACC | -0.141
124 | GCATCGTA | 0.0441
125 | CTCTCCGC | -0.221

Row | Sequence | binding signal [E-score]
126 | ACGATCCG | 0.218
127 | GCCGCTGA | -0.326
128 | CCATATGA | 0.0423
129 | CAATTACG | 0.221
130 | AATTATCA | 0.251
131 | TCGACACA | -0.0148
132 | CTGCACAC | -0.074
133 | AACCGTAG | 0.0498
134 | ATCGTCCC | -0.273
135 | CCTGCAGA | -0.0423
136 | CGACAAAC | -0.223
137 | AGCTGTGG | -0.327
138 | CCCCAGGG | -0.365
139 | AACACGTC | -0.0845
140 | CTTCTTAC | 0.13
141 | CATGATTA | 0.101
142 | GCACGTCA | -0.204
143 | TCAGATAA | 0.247
144 | CACAGGTC | -0.178
145 | GATGGTAA | 0.279
146 | TGGGACAA | -0.0148
147 | AGTGGGAA | -0.23
148 | AGTCATTA | 0.0538
149 | CAGATCAA | -0.0576
150 | AGTCTAAT | -0.0914

Row | Sequence | binding signal [E-score]
151 | AGACTGCG | -0.0525
152 | GTAGATAA | 0.407
153 | CTCAGCAG | -0.0802
154 | CGAGTATA | 0.226
155 | CGACGCCG | -0.26
156 | GATGTGGC | -0.00287
157 | ATTCCGAA | 0.17
158 | CATATGGC | -0.0788
159 | CGAAAGAA | -0.184
160 | CAAGTTAC | 0.122
161 | ACCCAACA | -0.083
162 | TCGCCCGA | -0.296
163 | AGAGTTAT | 0.147
164 | AAGAACGG | -0.0347
165 | AAGATGGC | -0.0108
166 | AACCTGAA | -0.0441
167 | GCCTACCA | 0.00758
168 | GGCGGACC | -0.451
169 | CATTCTAA | 0.0993
170 | ACCCAATG | -0.0502
171 | AGTAGAAT | 0.42
172 | AGATAGTC | 0.0258
173 | GGACCGTA | 0.0306
174 | TCCCCCAA | -0.317
175 | ACAAAAAT | 0.0387

Row | Sequence | binding signal [E-score]
176 | AGGCAGCA | -0.152
177 | AAGACTCG | -0.158
178 | AAGTTTAT | 0.0875
179 | AACGGCTG | 0.0377
180 | ACTGTAAC | 0.201
181 | CTGTGGAA | -0.0428
182 | CCAGGGAC | -0.258
183 | AACTTTGA | -0.0517
184 | CCGATAAG | -0.0743
185 | GCTAAGAA | 0.112
186 | ATATGGAT | 0.231
187 | CAGAATGG | -0.146
188 | CATAAGTA | 0.269
189 | AACTTTTA | 0.243
190 | ATTCTGCG | 0.047
191 | TACAGCTA | 0.179
192 | AACTGTCA | 0.139
193 | AGCTATGG | 0.129
194 | CCGTCGTC | -0.197
195 | AAGTGTCG | 0.0801
196 | CGACGTAG | -0.0659
197 | AGAATCCG | 0.179
198 | AGGTTAAT | 0.137
199 | GAAGTGCC | -0.189
200 | CCCCATCC | -0.38

Row | Sequence | binding signal [E-score]
201 | ACGATTGA | 0.182
202 | CCGTTCTA | 0.0676
203 | GAGCAAGC | -0.0562
204 | ATATGTGG | 0.118
205 | TCCCTGCA | -0.143
206 | AATTGACG | 0.213
207 | CGTCAATC | -0.119
208 | GGCATCCA | -0.322
209 | CGGCCAAC | -0.111
210 | CCACGTGA | -0.105
211 | GTACGACA | 0.0676
212 | AAGCAGCA | -0.0118
213 | CCTAGATC | 0.174
214 | AAGGCGGG | -0.288
215 | GCGTGTAC | -0.0182
216 | CAATCTTC | 0.14
217 | GTGGACAA | -0.11
218 | CCCTGAAG | -0.183
219 | CCGACACG | -0.36
